These are yes or no findings as the source states them, for the method shown. Some binding calls cover weakened binding; strength is not graded here. For some assays here: Tags and fused reporters may be left off the sequences shown.
What was measured:
[1] = molecular target: T1, murine GPR182 (mGPR182), expressed from mGPR182 T2A GFP in 300.19 pre-B cells (mouse) (UniProt P43142); test: flow cytometry on cells; competition scavenging at 37°C: 300.19 cells expressing mGPR182 or hGPR182 with 3 nM fluorescent chemokine and increasing concentrations of its unlabeled counterpart, 45 min; only the binder purified
T1 sequence: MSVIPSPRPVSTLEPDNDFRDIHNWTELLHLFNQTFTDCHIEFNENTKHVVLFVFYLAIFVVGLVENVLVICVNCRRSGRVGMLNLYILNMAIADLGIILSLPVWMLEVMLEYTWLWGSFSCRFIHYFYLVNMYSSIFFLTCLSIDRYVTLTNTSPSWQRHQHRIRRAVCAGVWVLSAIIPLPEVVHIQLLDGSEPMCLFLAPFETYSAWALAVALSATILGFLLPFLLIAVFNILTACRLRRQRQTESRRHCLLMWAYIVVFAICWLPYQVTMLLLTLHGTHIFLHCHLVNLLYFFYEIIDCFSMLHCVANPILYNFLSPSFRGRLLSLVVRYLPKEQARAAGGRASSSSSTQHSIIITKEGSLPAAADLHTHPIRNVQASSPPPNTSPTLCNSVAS

Sequences of proteins named here, by UniProt entry; tags and fusion partners are left off. A change or cut given only in a name is not applied to a line headed by its entry. Residues count along the entry.
UniProt O15218: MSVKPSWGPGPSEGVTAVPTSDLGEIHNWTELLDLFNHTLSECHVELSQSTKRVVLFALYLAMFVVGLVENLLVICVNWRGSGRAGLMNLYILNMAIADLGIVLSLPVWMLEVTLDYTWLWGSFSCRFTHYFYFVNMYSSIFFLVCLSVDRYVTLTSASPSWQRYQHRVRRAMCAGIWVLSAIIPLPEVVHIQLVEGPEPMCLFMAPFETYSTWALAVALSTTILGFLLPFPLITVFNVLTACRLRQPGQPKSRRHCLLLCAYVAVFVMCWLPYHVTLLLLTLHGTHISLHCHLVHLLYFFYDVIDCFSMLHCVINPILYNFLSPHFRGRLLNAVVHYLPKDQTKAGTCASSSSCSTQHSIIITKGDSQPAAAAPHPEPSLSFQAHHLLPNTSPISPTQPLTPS
UniProt P25106: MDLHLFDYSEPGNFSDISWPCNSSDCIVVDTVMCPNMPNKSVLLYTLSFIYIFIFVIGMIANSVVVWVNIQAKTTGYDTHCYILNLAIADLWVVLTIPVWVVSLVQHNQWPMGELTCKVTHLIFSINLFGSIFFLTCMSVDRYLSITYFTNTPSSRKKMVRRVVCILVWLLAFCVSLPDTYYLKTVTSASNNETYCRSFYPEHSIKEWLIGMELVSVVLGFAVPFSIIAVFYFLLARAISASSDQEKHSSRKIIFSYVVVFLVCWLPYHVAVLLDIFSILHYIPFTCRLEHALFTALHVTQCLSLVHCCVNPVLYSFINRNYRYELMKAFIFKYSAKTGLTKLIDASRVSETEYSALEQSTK
UniProt Q9JIL2, residues 17-130: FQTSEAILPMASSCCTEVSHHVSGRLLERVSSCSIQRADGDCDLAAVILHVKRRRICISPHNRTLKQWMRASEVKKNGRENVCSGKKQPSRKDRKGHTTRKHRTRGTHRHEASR

[2] = molecular target: human GPR182 (hGPR182), expressed from hGPR182 T2A GFP in 300.19 pre-B cells (human) (UniProt O15218); test: as above
[3] = molecular target: T1, murine GPR182 (mGPR182), expressed from mGPR182 T2A GFP in 300.19 pre-B cells (mouse); test: flow cytometry on cells; competition binding at 4°C: 300.19 cells expressing mGPR182 or hGPR182 with 3 nM fluorescent chemokine and increasing concentrations of its unlabeled counterpart, 45 min; only the binder purified
[4] = molecular target: human GPR182 (hGPR182), expressed from hGPR182 T2A GFP in 300.19 pre-B cells (human) (UniProt O15218); test: as above
[5] = molecular target: T2, mGPR182 T2A GFP in HEK293 cells (mouse) (UniProt P43142); test: uptake of fluorescent chemokine by confocal microscopy; HEK293 cells expressing mGPR182 or hGPR182 (T2A GFP) incubated with 100-200 nM fluorescent chemokine at 37°C, fixed and imaged (3D reconstruction), or imaged live; only the binder purified
T2 sequence: T1 sequence

[6] = molecular target: hGPR182 T2A GFP in HEK293 cells (human) (UniProt O15218); test: as above
[7] = molecular target: T3, ACKR2 (T2A GFP) in 300.19 pre-B cells (UniProt O00590); test: flow cytometry on cells; binding: 300.19 pre-B cells stably expressing the receptor (T2A GFP) incubated with 100 or 200 nM fluorescently labelled chemokine at 4°C for 45 min; MFI of parental cells subtracted; only the binder purified
T3 sequence: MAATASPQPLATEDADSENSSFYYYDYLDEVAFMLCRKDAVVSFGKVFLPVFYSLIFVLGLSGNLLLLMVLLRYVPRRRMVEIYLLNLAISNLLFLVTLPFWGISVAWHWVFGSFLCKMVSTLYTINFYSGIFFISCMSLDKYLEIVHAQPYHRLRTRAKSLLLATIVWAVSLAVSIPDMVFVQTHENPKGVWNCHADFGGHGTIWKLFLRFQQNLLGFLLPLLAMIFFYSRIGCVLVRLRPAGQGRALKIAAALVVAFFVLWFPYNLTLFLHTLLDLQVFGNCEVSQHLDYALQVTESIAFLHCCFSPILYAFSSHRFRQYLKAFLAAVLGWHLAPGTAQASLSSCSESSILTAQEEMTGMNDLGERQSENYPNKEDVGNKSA

[8] = molecular target: hACKR3 (T2A GFP) in 300.19 pre-B cells (human) (UniProt P25106); test: as above

binding [1]: binds | binding [2]: binds | binding [3]: binds | binding [4]: binds | binding [5]: binds | binding [6]: binds | binding [7]: no binding (tested: 100 nM) | binding [8]: no binding (tested: 100 nM)
Substance: mCCL28, fluorescently labelled (from UniProt Q9JIL2 17-130) (ligand)
